# According to the supplement of paper PMC10037445:
# In all, about 2,900 compounds were measured (“IRF Lucia reporter activity, fold change vs agonist alone”: median about 0.9, highest 2% from about 2.8 on). The list shows a part of the results.
# Assays:
# [1] = test system: RAW-Dual; experiment: IRF Lucia reporter activity, fold change vs agonist alone; cytotoxicity flag (confluency mask): not cytotoxic; higher = enhanced IRF activity
# Method in brief: (§1)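 Cytotoxic wells were those whose IncuCyte confluency was below 70% of agonist controls in both mask sets. The cells were RAW-Dual macrophages at 50,000 cells/well in DMEM on 384-well plates, dosed with 50 nL of library stock by pin tool, stimulated with a PRR agonist 1 h later, and kept at 37 °C, 5% CO2 for 20 hours. IRF and NF-κB reporter activity, as fold change over agonist-alone wells, came from supernatant read by QuantiLuc luminescence and QuantiBlue absorbance, respectively.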
# [2] = test system: RAW-Dual; experiment: IRF Lucia reporter activity, fold change vs agonist alone; higher = enhanced IRF activity; conditions: cytotoxicity flag (confluency mask): not cytotoxic, agonist: MPLA (TLR4) […]
# Method in brief: as §1
# [3] = test system: RAW-Dual; experiment: IRF Lucia reporter activity, fold change vs agonist alone; cytotoxicity flag (confluency mask): cytotoxic (confluency <70% of control); higher = enhanced IRF activity
# Method in brief: as §1
# [4] = agonist: 3'3'-cGAMP (STING) 10 ug/mL
# [5] = library stock concentration (final ~1000-fold dilution): 10 mM
# [6] = library stock concentration (final ~1000-fold dilution): 10 mM water
structure (smiles),measurement,setting,value
CCN(C)C(=O)Oc1cccc(C(C)N(C)C)c1.O=C(O)C(O)C(O)C(=O)O (stereo unspecified) (library stock concentration (final ~1000-fold dilution): 10 mM),IRF Lucia reporter activity,[1]; [4],1.05
same,IRF Lucia reporter activity,[1]; agonist: LPS (TLR4) 0.1 ug/mL,0.966
CCN(C)C(=O)Oc1cccc(C(C)N(C)C)c1.O=C(O)C(O)C(O)C(=O)O (stereo unspecified),IRF Lucia reporter activity,[2]; [5],0.95
COc1ccc(C(CN(C)C)C2(O)CCCCC2)cc1 (stereo unspecified) (library stock concentration (final ~1000-fold dilution): 10 mM),IRF Lucia reporter activity,[1]; [4],0.983
same,IRF Lucia reporter activity,[1]; agonist: LPS (TLR4) 0.1 ug/mL,0.867
COc1ccc(C(CN(C)C)C2(O)CCCCC2)cc1 (stereo unspecified),IRF Lucia reporter activity,[2]; [5],0.973
COC(=O)C(N)CCCNC(=N)N[N+](=O)[O-].Cl (stereo unspecified) (library stock concentration (final ~1000-fold dilution): 10 mM water),IRF Lucia reporter activity,[1]; [4],1.19
same,IRF Lucia reporter activity,[1]; agonist: LPS (TLR4) 0.1 ug/mL,0.93
COC(=O)C(N)CCCNC(=N)N[N+](=O)[O-].Cl (stereo unspecified),IRF Lucia reporter activity,[2]; [6],1.46
CN(C)C(=O)Oc1cccc([N+](C)(C)C)c1,IRF Lucia reporter activity,[2]; [6],1.38
CN(C)C(=O)Oc1cccc([N+](C)(C)C)c1 (library stock concentration (final ~1000-fold dilution): 10 mM water),IRF Lucia reporter activity,[1]; [4],1.22
same,IRF Lucia reporter activity,[1]; agonist: LPS (TLR4) 0.1 ug/mL,0.842
CN(C)C(=O)Oc1cccc([N+](C)(C)C)c1.COS(=O)(=O)[O-],IRF Lucia reporter activity,[2]; [5],1.06
CN(C)C(=O)Oc1cccc([N+](C)(C)C)c1.COS(=O)(=O)[O-] (library stock concentration (final ~1000-fold dilution): 10 mM),IRF Lucia reporter activity,[1]; [4],1.03
same,IRF Lucia reporter activity,[1]; agonist: LPS (TLR4) 0.1 ug/mL,0.936
COc1ccc(C(=O)O)cc1OC (library stock concentration (final ~1000-fold dilution): 10 mM),IRF Lucia reporter activity,[1]; [4],0.517
same,IRF Lucia reporter activity,[1]; agonist: LPS (TLR4) 0.1 ug/mL,0.703
CCCCC(C#N)(Cn1cncn1)c1ccc(Cl)cc1 (stereo unspecified) (library stock concentration (final ~1000-fold dilution): 10 mM),IRF Lucia reporter activity,[1]; [4],1.25
same,IRF Lucia reporter activity,[1]; agonist: LPS (TLR4) 0.1 ug/mL,1.27
CCCCC(C#N)(Cn1cncn1)c1ccc(Cl)cc1 (stereo unspecified),IRF Lucia reporter activity,[2]; [5],1.33
CCc1c(C(=O)C(N)=O)c2c(OCC(=O)O)cccc2n1Cc1ccccc1 (library stock concentration (final ~1000-fold dilution): 10 mM),IRF Lucia reporter activity,[1]; [4],0.95
same,IRF Lucia reporter activity,[1]; agonist: LPS (TLR4) 0.1 ug/mL,1.07
CCc1c(C(=O)C(N)=O)c2c(OCC(=O)O)cccc2n1Cc1ccccc1,IRF Lucia reporter activity,[2]; [5],0.882
COc1ccc2c(c[n+](C)c3c4cc5c(cc4ccc23)OCO5)c1OC.Cl,IRF Lucia reporter activity,[2]; [5],0.0339
COc1ccc2c(c[n+](C)c3c4cc5c(cc4ccc23)OCO5)c1OC.Cl (library stock concentration (final ~1000-fold dilution): 10 mM),IRF Lucia reporter activity,[1]; [4],0.0106
same,IRF Lucia reporter activity,[1]; agonist: LPS (TLR4) 0.1 ug/mL,0.0487
CN1C2CC(OC(=O)C(CO)c3ccccc3)CC1C1OC12 (stereo unspecified) (library stock concentration (final ~1000-fold dilution): 10 mM),IRF Lucia reporter activity,[1]; [4],1.03
same,IRF Lucia reporter activity,[1]; agonist: LPS (TLR4) 0.1 ug/mL,0.969
CN1Cc2c(ccc3c2OCO3)C2C(O)Cc3cc4c(cc3C21)OCO4 (stereo unspecified) (library stock concentration (final ~1000-fold dilution): 10 mM),IRF Lucia reporter activity,[3]; [4],0.124
same,IRF Lucia reporter activity,[3]; agonist: LPS (TLR4) 0.1 ug/mL,1.53
O=c1[nH]c2ccc(Cl)cc2c(NC2CN3CCC2CC3)c1-c1nc2ccccc2[nH]1 (stereo unspecified),IRF Lucia reporter activity,[2]; [5],0.829
O=c1[nH]c2ccc(Cl)cc2c(NC2CN3CCC2CC3)c1-c1nc2ccccc2[nH]1 (stereo unspecified) (library stock concentration (final ~1000-fold dilution): 10 mM),IRF Lucia reporter activity,[1]; [4],0.738
same,IRF Lucia reporter activity,[1]; agonist: LPS (TLR4) 0.1 ug/mL,0.0187
CC(NC(C)(C)C)C(=O)c1cccc(Cl)c1.Cl (stereo unspecified),IRF Lucia reporter activity,[2]; [5],1.08
CC(NC(C)(C)C)C(=O)c1cccc(Cl)c1.Cl (stereo unspecified) (library stock concentration (final ~1000-fold dilution): 10 mM),IRF Lucia reporter activity,[1]; [4],0.961
same,IRF Lucia reporter activity,[1]; agonist: LPS (TLR4) 0.1 ug/mL,0.906
CN1C(=O)COc2c(C(=O)NC3CN4CCC3CC4)cc(Cl)cc21.Cl (stereo unspecified),IRF Lucia reporter activity,[2]; library stock concentration (final ~1000-fold dilution): 2 mM water,1.23
CN1C(=O)COc2c(C(=O)NC3CN4CCC3CC4)cc(Cl)cc21.Cl (stereo unspecified) (library stock concentration (final ~1000-fold dilution): 2 mM water),IRF Lucia reporter activity,[1]; [4],1
same,IRF Lucia reporter activity,[1]; agonist: LPS (TLR4) 0.1 ug/mL,0.74
COc1cc(C2c3cc4c(cc3C(O)C3COC(=O)C23)OCO4)cc(OC)c1OC (stereo unspecified) (library stock concentration (final ~1000-fold dilution): 10 mM),IRF Lucia reporter activity,[3]; [4],0.0599
same,IRF Lucia reporter activity,[3]; agonist: LPS (TLR4) 0.1 ug/mL,1.68
CN1CCN(C(=O)COc2ccc(C34CC5CC(CC(C5)C3)C4)cc2)CC1 (library stock concentration (final ~1000-fold dilution): 10 mM),IRF Lucia reporter activity,[1]; [4],0.265
same,IRF Lucia reporter activity,[1]; agonist: LPS (TLR4) 0.1 ug/mL,1.13
CC1CCC2(OC1)OC1CC3C4CC=C5CC(OC6OC(CO)C(OC7OC(C)C(O)C(O)C7O)C(O)C6OC6OC(C)C(O)C(O)C6O)CCC5(C)C4CCC3(C)C1C2C (stereo unspecified) (library stock concentration (final ~1000-fold dilution): 10 mM),IRF Lucia reporter activity,[1]; [4],1.01
same,IRF Lucia reporter activity,[1]; agonist: LPS (TLR4) 0.1 ug/mL,0.208
CC1CCC2(OC1)OC1CC3C4CC=C5CC(OC6OC(CO)C(OC7OC(C)C(O)C(O)C7O)C(O)C6OC6OC(C)C(O)C(O)C6O)CCC5(C)C4CCC3(C)C1C2C (stereo unspecified),IRF Lucia reporter activity,[2]; [5],1.04
